Source: PubChem BioAssay AID624255 (Broad Institute, 2012)
“And” between values parts separate entries of the source, which are not always exact repeats. Identical values can stand only once. Hit rate of the full screen: of about 77,000 compounds, about 4,600 (6%) were called active. Inconclusive results, whose numbers are uncertain, are shown with a selection of clear calls.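 Rule for the calls: active = mean inhibition above about 93%, with at least 55% of replicates each passing it (limit read from the data, passing the limit was not always enough); inconclusive = only one of those two conditions holds; inactive = neither condition holds.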

Assay: T. cruzi intracellular proliferation inhibitors, primary screen, cell-based, beta-gal Tulahuen parasites, NIH3T3 host, luminescence (AID 624255)
Details: T. cruzi beta-gal in NIH3T3, GalScreen luminescence, 90 h; at 8.34 µM; active compounds read high
With C[C@@H]1CN([C@H](C)CO)C(=O)Cc2cc(NC(=O)Nc3cccc4ccccc34)ccc2O[C@@H]1CN(C)Cc1ccc(Cl)c(Cl)c1 the inhibition was inconclusive: 96.4%.
In the case of COc1ccc(S(=O)(=O)N(C)C[C@@H]2OCc3ccccc3-c3c(n(C)c4ccccc34)C(=O)N([C@@H](C)CO)C[C@@H]2C)cc1, the inhibition is reported as inconclusive: 95.5%.
In the case of C[C@@H]1CN([C@H](C)CO)S(=O)(=O)c2ccc(/C=C/c3ccccc3)cc2O[C@@H]1CN(C)C(=O)c1ccc2c(c1)OCO2, the inhibition is reported as inactive: 90.7%.
For COc1ccc(S(=O)(=O)N(C)C[C@@H]2OCCCC[C@@H](C)Oc3ccc(NC(=O)Nc4ccccc4)cc3C(=O)N([C@@H](C)CO)C[C@H]2C)cc1, the inhibition was inconclusive: 99.4%.
For CC=Cc1ccc2n(c1=O)C[C@@H]1[C@@H](CO)[C@H](C(=O)NCc3ccccc3Cl)N(S(C)(=O)=O)[C@H]21 (mixture of isomers), the inhibition was active: 97.5%.
With C[C@H](CO)N1C[C@H](C)[C@H](CN(C)C(=O)c2cccc(F)c2)Oc2cc(-c3ccncc3)ccc2S1(=O)=O the inhibition was active: 109%.
With N#C[C@@H]1N[C@@H](CO)[C@@H]1c1ccc(C#Cc2ccc(F)cc2)cc1 the inhibition was active: 103%.
For C[C@@H]1CCCCO[C@H](CN(C)Cc2ccc(C(F)(F)F)cc2)[C@H](C)CN([C@H](C)CO)C(=O)c2cc(NC(=O)Nc3ccccc3)ccc2O1, the inhibition was inconclusive: 85.1%.
With C[C@@H]1CCCCO[C@H](CN(C)Cc2ccc(C(F)(F)F)cc2)[C@@H](C)CN([C@H](C)CO)C(=O)c2cc(N(C)C)ccc2O1 the inhibition was inconclusive: 100%.
For COc1ccccc1C#Cc1ccc2c(c1)O[C@H](CN(C)Cc1ccncc1)[C@@H](C)CN([C@@H](C)CO)S2(=O)=O, the inhibition was active: 127%.
For C[C@H](CO)N1C[C@H](C)[C@@H](CN(C)Cc2ccc(Cl)c(Cl)c2)Oc2ccc(NS(=O)(=O)c3cccs3)cc2CC1=O, the inhibition was inactive: 90.2%.
With CCS(=O)(=O)N1CCCCN2[C@H](CO)[C@H](c3ccc(-c4ccc(C#N)cc4)cc3)[C@H]2C1 the inhibition was active: 114%.
For C[C@H](CO)N1C[C@H](C)[C@H](CN(C)S(=O)(=O)c2cccc(F)c2)Oc2cc(Br)ccc2S1(=O)=O, the inhibition was active: 117%.
In the case of Cc1ccc(S(=O)(=O)N[C@H]2CC[C@H](CC(=O)N3CCC(Cc4ccccc4)CC3)O[C@H]2CO)cc1, the inhibition is reported as inactive: 51.8%.
For CN1c2ccc(Br)cc2[C@H]2[C@H](CCN2C(=O)Nc2cc(F)ccc2F)[C@H]1CO, the inhibition was inconclusive: 82.4%.
For O=C(Nc1cccc(F)c1)N[C@@H]1CC[C@@H](CCNS(=O)(=O)c2cccc(Cl)c2)O[C@@H]1CO, the inhibition was active: 121%.
In the case of CCCNC(=O)[C@@H]1[C@@H](CO)[C@@H]2Cn3c(cccc3=O)[C@@H]2N1Cc1ccccc1Cl, the inhibition is reported as inactive: 2.85%.
With Cc1ccc(S(=O)(=O)N(C)C[C@@H]2OCCCC[C@H](C)Oc3ccc(NS(=O)(=O)c4ccccc4)cc3C(=O)N([C@H](C)CO)C[C@@H]2C)cc1 the inhibition was inconclusive: 92.1%.
With CCCC#Cc1ccc2c(c1)O[C@@H](CN(C)C(=O)CC1CC1)[C@H](C)CN([C@@H](C)CO)S2(=O)=O the inhibition was inconclusive: 96.3%.
In the case of CCCC#Cc1ccc2c(c1)O[C@H](CN(C)C(=O)C1CCCCC1)[C@@H](C)CN([C@@H](C)CO)S2(=O)=O, the inhibition is reported as active: 94.7%.
For COc1ccc(S(=O)(=O)N(C)C[C@@H]2OCCCC[C@H](C)Oc3ccc(NC(=O)Nc4ccccc4)cc3C(=O)N([C@@H](C)CO)C[C@@H]2C)cc1, the inhibition was inconclusive: 96.9%.
With C[C@H](CO)N1C[C@H](C)[C@H](CN(C)C(=O)Nc2ccc(F)cc2)OCCCC[C@H](C)Oc2ccc(NC(=O)c3ccccc3)cc2C1=O the inhibition was inconclusive: 96%.
With CC(C)C#Cc1ccc2c(c1)O[C@H](CN(C)Cc1ccccn1)[C@@H](C)CN([C@H](C)CO)S2(=O)=O the inhibition was inconclusive: 113%.
With C[C@@H]1CN([C@@H](C)CO)C(=O)Cc2cc(NC(=O)CCN3CCOCC3)ccc2O[C@H]1CN(C)C(=O)Nc1ccccc1 the inhibition was inactive: 6.37%.
For CCS(=O)(=O)Nc1ccc2c(c1)C(=O)N(C)C[C@H](OC)[C@@H](C)CN(CC1CCCC1)[C@H](C)CO2, the inhibition was inactive: -34.9%.
For C[C@H]1CCCCO[C@@H](CN(C)S(=O)(=O)c2cccs2)[C@@H](C)CN([C@@H](C)CO)C(=O)c2cc(NS(=O)(=O)c3ccc(Cl)cc3)ccc2O1, the inhibition was inconclusive: 101%.
In the case of COc1ccc(S(=O)(=O)N(C)C[C@@H]2Oc3ncc(C#Cc4cccc(F)c4)cc3C(=O)N([C@H](C)CO)C[C@@H]2C)cc1, the inhibition is reported as inconclusive: 99.8%.
In the case of Cc1cccc(NC(=O)Nc2ccc3c(c2)C(=O)N(C)[C@H]2CC[C@H](CC(=O)O)O[C@@H]2CO3)c1, the inhibition is reported as inactive: -18.7%.
With C[C@H]1CN([C@@H](C)CO)C(=O)c2cc(-c3ccc(C(=O)N(C)C)cc3)cnc2O[C@H]1CN(C)C(=O)C1CC1 the inhibition was inactive: 0.405%.
With C[C@H]1CN([C@@H](C)CO)S(=O)(=O)c2ccc(C#Cc3ccccn3)cc2O[C@H]1CN(C)Cc1ccc(F)cc1 the inhibition was active: 132% and active: 116%.
In the case of O=C(Nc1ccc(F)cc1)N1CCCCN2[C@H](CO)[C@@H](c3ccc(-c4ccccc4F)cc3)[C@H]2C1, the inhibition is reported as active: 104%.
With C[C@H](CO)N1C[C@H](C)[C@H](CN(C)C(=O)Nc2ccc(C(F)(F)F)cc2)OCCCC[C@H](C)Oc2ccc(NC(=O)c3ccccc3)cc2C1=O the inhibition was inconclusive: 95.5%.
With CS(=O)(=O)N1[C@H](C#N)[C@H](c2ccc(C#CC3CCCCC3)cc2)[C@H]1CO the inhibition was active: 99.1%.
With COc1cccc(S(=O)(=O)N(C)C[C@@H]2Oc3cc(C#CCC(C)C)ccc3S(=O)(=O)N([C@@H](C)CO)C[C@@H]2C)c1 the inhibition was inconclusive: 84.8%.
In the case of Cc1noc(C)c1S(=O)(=O)Nc1ccc2c(c1)C(=O)N([C@H](C)CO)C[C@H](C)[C@H](CN(C)Cc1ccc(C(F)(F)F)cc1)OCCCC[C@@H](C)O2, the inhibition is reported as inconclusive: 96.3%.
In the case of Cc1ccccc1S(=O)(=O)N1C[C@H](O)COC[C@@H]2O[C@@H](CC(=O)NCCc3ccccc3)CC[C@H]21, the inhibition is reported as inactive: 50.3%.
In the case of COc1ccc(C#Cc2ccc3c(c2)[C@@H]2[C@@H](CCN2C(=O)c2ccccc2F)[C@H](CO)N3C)cc1, the inhibition is reported as inconclusive: 96.1%.
For C[C@H](CO)N1C[C@H](C)[C@H](CN(C)Cc2ccc(Oc3ccccc3)cc2)Oc2ccc(NS(=O)(=O)c3ccc(Cl)cc3)cc2C1=O, the inhibition was inconclusive: 94.9%.
For COc1ccc(NC(=O)Nc2ccc3c(c2)C(=O)N([C@H](C)CO)C[C@H](C)[C@@H](CN(C)C(=O)Nc2c(C)noc2C)OCCCC[C@@H](C)O3)cc1, the inhibition was inactive: 61.3%.
With CCc1csc(N2[C@H](C#N)[C@H](c3ccc(-c4cccc(F)c4)cc3)[C@@H]2CO)n1 the inhibition was inactive: 91.8%.
In the case of C[C@@H]1CN([C@@H](C)CO)S(=O)(=O)c2ccc(C#CC3CCCCC3)cc2O[C@H]1CN(C)Cc1cccnc1, the inhibition is reported as inactive: 90.3%.
With Cc1ccc(S(=O)(=O)N(C)C[C@H]2OCCCC[C@@H](C)Oc3ccc(NS(=O)(=O)c4cccs4)cc3C(=O)N([C@@H](C)CO)C[C@@H]2C)cc1 the inhibition was inconclusive: 96.4%.
In the case of Cc1ccc(S(=O)(=O)N2CC[C@@H]3[C@H]2c2cc(C#Cc4ccccc4F)ccc2N[C@@H]3CO)cc1, the inhibition is reported as inconclusive: 97.4%.
In the case of Cc1ccccc1S(=O)(=O)N1CCCCN2[C@H](C1)[C@@H](c1ccc(-c3cccc(F)c3)cc1)[C@@H]2CO, the inhibition is reported as inconclusive: 97.9%.
For COc1ccccc1C#Cc1ccc2c(c1)O[C@@H](CN(C)Cc1ccncc1)[C@H](C)CN([C@@H](C)CO)S2(=O)=O, the inhibition was active: 121%.
For COc1cccc(-c2ccc([C@@H]3[C@@H](CO)N4CCCCN(C(=O)c5ccc6c(c5)OCO6)C[C@@H]34)cc2)c1, the inhibition was inconclusive: 95.2%.
In the case of O=C(c1ccncc1)N1CCCCN2[C@H](C1)[C@H](c1ccc(-c3ccccc3)cc1)[C@@H]2CO, the inhibition is reported as inactive: -0.322%.
With COc1ccc(S(=O)(=O)Nc2ccc3c(c2)C(=O)N([C@H](C)CO)C[C@H](C)[C@H](CN(C)Cc2ccc4c(c2)OCO4)OCCCC[C@H](C)O3)cc1 the inhibition was inconclusive: 95.5%.
In the case of O=S(=O)(Cc1ccccc1)N1CCCCN2[C@H](C1)[C@@H](c1ccc(-c3cncnc3)cc1)[C@@H]2CO, the inhibition is reported as inconclusive: 98.7%.
In the case of CO[C@@H]1CN(C)C(=O)c2cc(NS(=O)(=O)c3cccc(Cl)c3)ccc2OC[C@@H](C)NC[C@H]1C, the inhibition is reported as inactive: -40%.
For COc1ccc(-c2ccc([C@H]3[C@H](C#N)N(C(=O)NC4CCCC4)[C@H]3CO)cc2)cc1, the inhibition was inconclusive: 95.6%.
In the case of CO[C@@H]1CN(C)C(=O)c2cc(NC(=O)c3cc(C)on3)ccc2OC[C@H](C)N(CC2CC2)C[C@@H]1C, the inhibition is reported as inconclusive: 48.9%.
In the case of C[C@H]1CN([C@@H](C)CO)C(=O)c2cccc(N(C)C)c2O[C@@H]1CN(C)Cc1ccc(Cl)c(Cl)c1, the inhibition is reported as active: 100%.
In the case of O=C(CN1CCOCC1)N1CCCCN2[C@@H](CO)[C@H](c3ccc(-c4ccccc4F)cc3)[C@@H]2C1, the inhibition is reported as inconclusive: 90.7%.
In the case of CNC[C@H]1OCCCC[C@H](C)Oc2ccc(NC(=O)c3ccccc3)cc2C(=O)N([C@H](C)CO)C[C@@H]1C, the inhibition is reported as inconclusive: 96%.
With CCc1csc(N2[C@@H](C#N)[C@@H](c3ccc(C4=CCCC4)cc3)[C@@H]2CO)n1 the inhibition was active: 101%.
For O=C(C[C@H]1CC[C@@H]2[C@H](COC[C@H](O)CN2S(=O)(=O)c2ccccc2F)O1)NCc1ccccc1F, the inhibition was inactive: 7.95%.
